Results as given in the supplement of paper PMC11417369.
Some of the results follow.

test system: PfHDP1 homeodomain (GST-tagged); test: gcPBM binding intensity (ln(normalized median fluorescence intensity)); higher = stronger DNA binding
How it was run: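 Each value is the highest Masliner-normalised natural-log median intensity across replicate spots of either orientation of a probe. The probes were primer-extended double-stranded 36-bp intergenic genomic sequences on an Agilent 4 × 180k array, alongside negative controls, exposed for 1 h to GST-tagged P. falciparum DNA-binding domains expressed in E. coli. Bound protein was picked up with Alexa488 anti-GST antibody and scanned at 488 nm.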

Row | Sequence | gcPBM binding intensity (ln)
1 | TTAACAAAATTTCCGTGTACGTAAATAAGAACATAG [XGTACX_site7200] | 6.64
2 | AAACAACATGGACACGCACACACAAAAAAAGCATGC [CACACA_site73] | 6.85
3 | ATGAATATAAAATATACACACTTATATATTGAATGA [CACACA_site4274] | 6.35
4 | GTTAATTCATTAAGGACACACAAAAAAAAAAAAAAA [CACACA_site998] | 6.25
5 | GATTAAATTTGACACTGTACAAAAAATAAAATGAGG [XGTACX_site504] | 6.79
6 | AGAAAAAAACGGTACAGTACACATAAACTAATTATT [XGTACX_site8617] | 6.44
7 | TATTATATATGGAAGTAATAATATATATATATATAT [GTGCAC_negctrl_site63] | 9.07
8 | ACAAACTAAAAAAGAAGTACAAATCGTATTAATAAT [XGTACX_site8684] | 6.6
9 | TTTTTTGAAAATAAAAGTACAAATTTTATATTTAAA [XGTACX_site2758] | 5.65
10 | ATATATTAAAAACGATGTACCCTGAACTAAAAAAAA [XGTACX_site4986] | 6.52
11 | TATTTATTTATGTGTTGTACAAATAAATAGAGGTAT [XGTACX_site6408] | 6.85
12 | TTTATTTATTACAATTTTTGAATCACCACACAGTCG [GTGCAC_negctrl_site413] | 6.62
13 | ATCATGTTATATACATGTACATATATATATATATAT [XGTACX_site1329] | 9.34
14 | TATATGAAAATGTTCATACACACATAAAAAAAAAAA [CACACA_site3237] | 6.41
15 | CATATTTCTTTATTGGCACACATTTTTTCAATTATA [CACACA_site1618] | 6.87
16 | TGAAATAAATAATGCACACTCTACAGATATACGTAT [CACACA_site5270] | 10.1
17 | TTGAAAATACAAAATTGTACAAAGATTTAAATAAAA [XGTACX_site1182] | 6.63
18 | TGTTATTACTTTATATCATCTTAAAATAAGCATATT [CACACA_negctrl_site1501] | 6.26
19 | AAAAAAAAAAAAAACACACACAAATTTAATCTATAT [CACACA_site6894] | 6.63

Row | Sequence | gcPBM binding intensity (ln)
20 | TTTCTTAAATATATTGAGGAATAAAAAGAAGAAAAG [GTGCAC_negctrl_site281] | 6.51
21 | TTATGAAAAATAAAATTAGAAAAAAAGGAAAATGAA [XGTACX_negctrl_site232] | 6.64
22 | AAAAAATTATAAAAGTGTACATATATATATATATAT [XGTACX_site154] | 9.48
23 | AGGTTACATAGATTTTGTACATATATATTATTTTTT [XGTACX_site3040] | 6.38
24 | TAGTTTTCTTAAAGATGTACATTTTAAAAATAATCT [XGTACX_site255] | 6.37
25 | TAGATATATAATTTGCGTACACAAATAATATATTTT [XGTACX_site6397] | 6.23
26 | AATACAAATATATACACACATACATACATACATATA [CACACA_site3147] | 6.79
27 | ATATATATATGTTACTGTACTAATTTATATGTTAAT [XGTACX_site3341] | 8.6
28 | CACAAAAATAGACACACACACATATAGATTTATTAT [CACACA_site7676] | 6.66
29 | ATACACATATGTTAATGTACACATATATAATATTTA [XGTACX_site163] | 6.8
30 | TTATGGTTTAAATAAAGTACAAATAAATAAATATAT [XGTACX_site5777] | 6.38
31 | TTCATTCAAATTAACGTGCACATTATTAGTAAAAAC | 10.7
32 | TTATATAATTTAATAGTGCAATTATATTAATTTTTC | 8.66
33 | GTTCATACTTAATATTGTACTTTTCATGTAGTGTAT [XGTACX_site6613] | 6.44
34 | TACAAATATATATGCACACACATATACATACATATA [CACACA_site2182] | 10.4
35 | TATTAGATATAATATATACACACCAACGAACGAAGA [CACACA_site1134] | 7.28
36 | AAATAAATATTTATATGTACATATATTTTATAATAC [XGTACX_site7041] | 6.6
37 | TAACATATTTTTAATACACACTCAAAAAAGTACTTA [CACACA_site5638] | 6.51
38 | CGCATACACAGACACACACACACATATAAATATGTA [CACACA_site6444] | 7.16

Row | Sequence | gcPBM binding intensity (ln)
39 | AATTTTTTATTAAACACACAAACATATATATATATA [CACACA_site1937] | 9.29
40 | TATACCTATAGACACACACACATATAGATTTATATA [CACACA_site7124] | 6.87
41 | TTTTTTCATTATATATAGTATGCAAGTCAAATTAAT [GTGCAC_negctrl_site207] | 6.8
42 | TTTTTTTTTTTGATGGTGCAATATATTAAATAGAAA | 10.4
43 | TATATATATATATAAAGTACATATAATATATATTTG [XGTACX_site5412] | 9.07
44 | ACAAAATTTACAAAATGTACAAAATTTACAAAATAT [XGTACX_site3542] | 6.27
45 | CTATAAAAATATAATTGTACAAATTTTTATATCTTA [XGTACX_site7722] | 6.16
46 | AAAAAAAAAAAAAACATACACACATTGAACTTTTAT [CACACA_site3251] | 6.51
47 | GAAAACGTCTTTAATAGTACACAGTTAAAAAATACA [XGTACX_site8976] | 6.5
48 | GAAATTATGTAAAAAAGTACTAACATACATATATAT [XGTACX_site1794] | 6.54
49 | TTTATCCAATAATCTGGTACACAATAATCATTCATG [XGTACX_site6192] | 6.22
50 | TTTCTATTTATTTCAAGTACTAAAAATATATATAAC [XGTACX_site8203] | 6.46
51 | ATTCATATATACTTCACACACATTTTATCATTCAAA [CACACA_site2468] | 7.03
52 | TTTTTTTACTTAATAGTTCAACATATATCTCAATGT [CACACA_negctrl_site620] | 6.22
53 | TTTTTGTGCATTGATTGTACTTTCTAGGATTATTAA [XGTACX_site7070] | 9.75
54 | TTGAACCTGATAAATACACACAATATATATTTTTTT [CACACA_site2173] | 6.58
55 | GTGATAAATATTATATGTACATATAATATTTATGTC [XGTACX_site8023] | 6.42
56 | TCAAAAACGAGACATGCATGCAATTCATTTTGATTC [TGCATGCA_site212] | 6.5
57 | CCATTCTTACTTTATTGTACTTGAAAATTTTTTTTA [XGTACX_site6160] | 6.7
